This passage reports inhibition results from ChEMBL document CHEMBL5252509, “In depth analysis of kinase cross screening data to identify chemical starting points for inhibition of the Nek family of kinases” (Medchemcomm, 2018).

The target in test [1] is T1, Serine/threonine-protein kinase Nek2 (Homo sapiens) (UniProt P51955).
T1 sequence (whole entry): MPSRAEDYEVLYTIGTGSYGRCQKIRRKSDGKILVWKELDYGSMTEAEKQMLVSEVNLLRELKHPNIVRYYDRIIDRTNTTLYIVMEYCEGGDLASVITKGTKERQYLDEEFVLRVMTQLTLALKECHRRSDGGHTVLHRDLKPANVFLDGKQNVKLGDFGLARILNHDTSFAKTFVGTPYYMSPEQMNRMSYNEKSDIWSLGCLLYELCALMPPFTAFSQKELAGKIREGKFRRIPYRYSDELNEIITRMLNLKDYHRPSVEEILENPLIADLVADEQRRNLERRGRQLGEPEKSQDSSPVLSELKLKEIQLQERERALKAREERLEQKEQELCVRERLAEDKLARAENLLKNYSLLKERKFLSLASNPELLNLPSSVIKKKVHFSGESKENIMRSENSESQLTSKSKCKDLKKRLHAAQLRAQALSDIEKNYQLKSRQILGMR
In words: Inhibition of NEK2 (unknown origin) at 1 uM relative to control.

For test [2], the target named is T2, Serine/threonine-protein kinase Nek6 (Homo sapiens) (UniProt Q9HC98).
T2 sequence (whole entry): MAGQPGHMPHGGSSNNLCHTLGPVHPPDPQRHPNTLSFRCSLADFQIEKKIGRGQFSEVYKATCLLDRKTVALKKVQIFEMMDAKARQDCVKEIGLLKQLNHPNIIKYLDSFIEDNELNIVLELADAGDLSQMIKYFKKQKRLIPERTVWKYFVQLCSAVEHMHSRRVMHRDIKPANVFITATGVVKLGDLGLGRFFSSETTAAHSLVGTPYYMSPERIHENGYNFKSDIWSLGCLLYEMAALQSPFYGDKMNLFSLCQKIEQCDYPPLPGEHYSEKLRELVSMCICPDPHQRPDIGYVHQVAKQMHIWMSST
In words: Inhibition of NEK6 (unknown origin) at 1 uM relative to control.

The target of test [3] is T3, Serine/threonine-protein kinase Nek10 (Homo sapiens) (UniProt Q6ZWH5).
T3 sequence (whole entry): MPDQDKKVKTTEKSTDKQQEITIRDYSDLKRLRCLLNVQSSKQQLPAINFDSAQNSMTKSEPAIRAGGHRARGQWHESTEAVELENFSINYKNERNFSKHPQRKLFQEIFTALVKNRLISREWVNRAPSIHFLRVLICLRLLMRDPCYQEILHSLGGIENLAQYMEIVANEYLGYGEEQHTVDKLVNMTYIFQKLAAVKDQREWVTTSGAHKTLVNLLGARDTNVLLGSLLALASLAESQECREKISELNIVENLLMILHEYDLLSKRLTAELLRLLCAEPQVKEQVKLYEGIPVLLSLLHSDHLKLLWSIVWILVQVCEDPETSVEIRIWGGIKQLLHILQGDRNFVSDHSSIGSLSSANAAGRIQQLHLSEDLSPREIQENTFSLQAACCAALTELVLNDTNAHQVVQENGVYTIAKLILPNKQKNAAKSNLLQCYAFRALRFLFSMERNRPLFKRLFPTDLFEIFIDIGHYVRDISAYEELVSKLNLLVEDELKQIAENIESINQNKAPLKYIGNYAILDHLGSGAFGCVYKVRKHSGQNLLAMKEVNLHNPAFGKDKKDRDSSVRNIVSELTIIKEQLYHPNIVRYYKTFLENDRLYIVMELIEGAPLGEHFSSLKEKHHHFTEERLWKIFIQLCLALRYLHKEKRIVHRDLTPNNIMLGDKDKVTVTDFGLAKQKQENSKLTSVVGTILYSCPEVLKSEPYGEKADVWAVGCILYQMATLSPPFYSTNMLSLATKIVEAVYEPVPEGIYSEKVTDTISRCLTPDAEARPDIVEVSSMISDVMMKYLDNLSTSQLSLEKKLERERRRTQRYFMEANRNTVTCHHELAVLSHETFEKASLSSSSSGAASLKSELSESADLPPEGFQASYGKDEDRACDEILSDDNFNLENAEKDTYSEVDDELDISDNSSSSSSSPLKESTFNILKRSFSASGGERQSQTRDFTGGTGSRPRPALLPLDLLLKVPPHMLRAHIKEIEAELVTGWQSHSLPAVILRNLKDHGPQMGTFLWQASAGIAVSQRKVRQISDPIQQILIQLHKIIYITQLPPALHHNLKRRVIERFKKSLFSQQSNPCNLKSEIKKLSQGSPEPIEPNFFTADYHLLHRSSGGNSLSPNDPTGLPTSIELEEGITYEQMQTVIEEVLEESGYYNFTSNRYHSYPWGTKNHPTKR
In words: Inhibition of NEK10 (unknown origin) at 1 uM relative to control.

The target of test [4] is T4, Serine/threonine-protein kinase Nek11 (Homo sapiens) (UniProt Q8NG66).
T4 sequence (whole entry): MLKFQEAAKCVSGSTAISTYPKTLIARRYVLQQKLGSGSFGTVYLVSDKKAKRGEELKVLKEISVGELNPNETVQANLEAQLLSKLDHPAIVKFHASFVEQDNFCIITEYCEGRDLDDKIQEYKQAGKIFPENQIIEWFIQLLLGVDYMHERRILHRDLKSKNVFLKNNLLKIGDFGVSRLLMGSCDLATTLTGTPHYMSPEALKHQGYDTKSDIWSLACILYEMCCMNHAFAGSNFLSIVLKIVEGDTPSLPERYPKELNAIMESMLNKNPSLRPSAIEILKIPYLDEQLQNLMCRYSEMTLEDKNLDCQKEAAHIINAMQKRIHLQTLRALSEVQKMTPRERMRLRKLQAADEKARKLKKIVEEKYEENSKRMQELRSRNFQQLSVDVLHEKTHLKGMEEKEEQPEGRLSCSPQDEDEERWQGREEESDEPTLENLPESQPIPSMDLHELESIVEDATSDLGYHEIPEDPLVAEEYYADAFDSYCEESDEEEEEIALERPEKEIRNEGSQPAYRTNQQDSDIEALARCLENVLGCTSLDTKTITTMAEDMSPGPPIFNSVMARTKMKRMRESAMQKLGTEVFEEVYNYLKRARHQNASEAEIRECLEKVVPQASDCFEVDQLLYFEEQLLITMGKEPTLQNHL
In words: Inhibition of NEK11 (unknown origin) at 1 uM relative to control.

With `O=C1NC(=O)C(c2ccc(Cl)cc2)=C1Nc1cccc(O)c1`, the inhibition in test [1] was found to be 12%; in test [2], 0%; in test [3], 50%; in test [4], 0%.
With `O=C1NC(=O)C(c2ccccc2)=C1Nc1cc(Cl)c(O)c(Cl)c1`, the inhibition in test [1] stood at 7%; in test [2], 3%; in test [3], 52%; in test [4], 0%.
For the compound `O=C1NC(=O)C(c2ccccc2)=C1Nc1ccc(Cl)c(C(=O)O)c1`, the inhibition in test [1] came to 6%; in test [2], 0%; in test [3] it was 88%; in test [4] it was 37%.
For `O=C1NC(=O)C(c2ccccc2Cl)=C1Nc1ccccc1`, the inhibition in test [1] came out at 73%; in test [2] it was 0%; in test [3] it was 56%; in test [4], 26%.
For `O=C1NC(=O)C(c2ccccc2Cl)=C1Nc1cccc(C(=O)O)c1`, the inhibition worked out at 0% in test [1], 0% in test [2], 6% in test [3] and 5% in test [4].
Regarding `O=C1NC(=O)C(c2ccccc2)=C1Nc1ccccc1`, the inhibition in test [1] amounted to 0%; in test [2] it was 0%; in test [3], 7%; in test [4] it was 4%.
With `O=C1NC(=O)C(c2ccc(Cl)cc2)=C1Nc1ccc(O)c(Cl)c1`, the inhibition was 3% in test [1], 10% in test [2], 55% in test [3] and 0% in test [4].
On to `O=C1NC(=O)C(c2ccc(Cl)cc2)=C1Nc1cccc(C(=O)O)c1`, for which the inhibition amounted to 0% in test [1], 0% in test [2], 55% in test [3] and 0% in test [4].

In general, inhibition refers to how much of the control response was suppressed. A lower inhibition goes with a response near the control.
